# In PubChem BioAssay AID1460 (National Center for Advancing Translational Sciences (NCATS), 2008):
# Where “and” joins values, the source holds several entries; their conditions need not be identical. Equal entries are not always repeated. Among all 270,000 compounds or so, about 5,800 (2.1%) were called active. Inconclusive results, whose numbers are uncertain, are shown with a selection of clear calls. Calls follow the shape of the dose curve; as a rule, active = well fitted inhibition curve with a large enough effect; inconclusive = small, poorly fitted or top-dose-only effect; inactive = flat fitted curve, though single readings scatter. Potencies of inconclusive entries are doubtful fits and often do not repeat.
# Target: Microtubule-associated protein tau (Homo sapiens) (UniProt P10636)
# Experiment: qHTS for Inhibitors of Tau Fibril Formation, Thioflavin T Binding; also: nearly all actives have a fitted effect of over 55% in size
# Conditions: recombinant tau K18 P301L (four-repeat tau fragment), heparin-induced fibrillization, ThT fluorescence; series mostly up to 57.4 µM
# Outline: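 Aggregation was driven by heparin (20 uM final) acting on recombinant tau […] bearing P301L in 100 mM sodium acetate pH 7; fibrils were detected with Thioflavin T.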
# Potency is read from the fitted curve at half-maximal effect; tags tell the direction and shape of the fitted curve.
# Sequence of UniProt P10636 (P10636 whole entry, looked up): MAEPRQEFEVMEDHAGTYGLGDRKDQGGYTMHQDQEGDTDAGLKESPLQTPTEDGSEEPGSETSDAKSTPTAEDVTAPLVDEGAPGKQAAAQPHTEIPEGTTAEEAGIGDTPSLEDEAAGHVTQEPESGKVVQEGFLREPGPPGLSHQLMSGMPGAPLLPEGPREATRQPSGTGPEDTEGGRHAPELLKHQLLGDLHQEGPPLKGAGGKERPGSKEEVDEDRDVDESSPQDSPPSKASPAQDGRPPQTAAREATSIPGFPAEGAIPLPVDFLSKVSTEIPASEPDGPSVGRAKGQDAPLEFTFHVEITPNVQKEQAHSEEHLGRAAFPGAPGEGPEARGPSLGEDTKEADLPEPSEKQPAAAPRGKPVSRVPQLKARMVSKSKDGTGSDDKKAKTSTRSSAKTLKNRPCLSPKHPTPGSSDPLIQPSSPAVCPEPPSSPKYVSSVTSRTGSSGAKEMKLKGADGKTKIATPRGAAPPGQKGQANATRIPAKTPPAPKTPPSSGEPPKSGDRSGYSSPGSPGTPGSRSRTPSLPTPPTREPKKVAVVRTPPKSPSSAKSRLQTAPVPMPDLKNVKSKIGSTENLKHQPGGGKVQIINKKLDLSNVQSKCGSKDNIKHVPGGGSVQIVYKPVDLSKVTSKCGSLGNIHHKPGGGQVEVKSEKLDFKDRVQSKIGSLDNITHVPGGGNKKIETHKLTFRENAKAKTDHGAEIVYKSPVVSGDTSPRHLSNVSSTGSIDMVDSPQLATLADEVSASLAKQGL
row,SMILES,Potency
1,CCOC(=O)C(=Cc1ccc(-n2cncn2)cc1)C(=O)OCC,"inconclusive: 12.6 µM [inhibitor, partial curve, poor fit]"
2,CC(=O)Nc1cccc(NC(=O)c2cc(-c3cccnc3)nc3ccc(Cl)cc23)c1,"inconclusive: 39.8 µM [inhibitor, single point]"
3,O=C(NC(C(=O)c1ccccc1)N1CCCCC1)c1ccccc1 (stereo not given),"inconclusive: 44.7 µM [inhibitor, single point]"
4,CCCCN1CCc2nc(N3CCN(c4ncccn4)CC3)ncc2C1,"inconclusive: 15.8 µM [inhibitor, partial curve, poor fit]"
5,N#C/C(=C/c1ccc(F)cc1)c1nc(CCN2C(=O)c3ccccc3C2=O)cs1,"inconclusive: 12.6 µM [inhibitor, partial curve]"
6,CC(C)NC(=O)CSc1nnc(-c2ccc(F)cc2)c2ccccc12,"inconclusive: 10 µM [inhibitor, partial curve]"
7,Clc1ccc2c(N/N=C/c3cccnc3)ccnc2c1,"inconclusive: 14.1 µM [inhibitor, partial curve]"
8,COc1cc(OC)cc(-n2nnc(-c3nc(-c4ccccc4Cl)no3)c2N)c1,"inconclusive: 7.94 µM [inhibitor, single point]"
9,NC(N)=NCCC[C@H](NC(=O)CC1(CC(=O)N2CCN(C3c4ccccc4NC(=O)c4ccccc43)CC2)CCCC1)C(=O)NCCn1c(=O)n(-c2ccccc2)n(-c2ccccc2)c1=O (stereo not given in full),"inconclusive: 28.2 µM [inhibitor, single point]"
10,Cc1cc(NC(=O)c2sc(Nc3ccc(F)cc3)nc2N)no1,"inconclusive: 2 µM [inhibitor, full curve]"
11,COc1ccc(-c2c3c(=O)n(C)c(=O)n(C)c3cn2Cc2ccccn2)cc1,"inconclusive: 35.5 µM [inhibitor, single point]"
12,COCCCNC(=O)c1sc2nc(C)c(C(=O)Nc3ccc(C)cc3C)c(-c3ccc(Cl)cc3)c2c1N,"inconclusive: 28.2 µM [inhibitor, partial curve]"
13,N#CC(=C(/N)Sc1ccccc1N)/C(C#N)=C(\N)Sc1ccccc1N,active: 25.1 µM and active: 14.1 µM
14,CSc1ccc(C(=O)C2CCCN(C(=O)c3ccc4c(c3)no[n+]4[O-])C2)cc1 (stereo not given),active: 28.2 µM
15,Cc1cc(Cl)ccc1OCc1nc(-c2ccncc2)no1,"inconclusive: 5.01 µM [inhibitor, partial curve]"
16,COc1ccc(-c2csc(NC(=O)c3nc(-c4ccccc4)oc3C)n2)cc1,"inconclusive: 22.4 µM [inhibitor, partial curve]"
17,Clc1ccc(-c2cn3nc4c(nc3n2)CCCC4)cc1,"inconclusive: 0.708 µM [inhibitor, full curve]"
18,Cc1cc(-c2nc3ncccc3o2)ccc1NC(=O)c1ccc(Br)cc1,"inconclusive: 2.82 µM [inhibitor, partial curve, poor fit]"
19,COC(=O)c1cc2sc(C)cc2n1Cc1ccc(Br)cc1F,"inconclusive: 17.8 µM [inhibitor, single point]"
20,COC(=O)c1ccc(/C=C(\C#N)C(=O)NC(C)c2ccccc2)cc1 (stereo not given),"inconclusive: 17.8 µM [inhibitor, partial curve]"
21,COc1ccc(C2=NN(CC(=O)NCCCN(C)c3ccccc3)C(=O)CC2)cc1,inactive
22,CCOC(=O)C1(C)/C(=N/Nc2ccccc2)C(=O)C(=O)N1c1ccccc1 (stereo not given),active: 17.8 µM
23,Cc1ccc2oc(=O)c(/C=C(\O)C(C)(C)C)nc2c1,"inconclusive: 31.6 µM [inhibitor, single point]"
24,O=C(O)CCCCCCCCCCCc1ccccc1,"inconclusive: 15.8 µM [inhibitor, partial curve]"

row,SMILES,Potency
1,N#C/C(=C\Nc1ccc2c(c1)OCCO2)C(=O)NCc1ccco1,"inconclusive: 39.8 µM [inhibitor, single point]"
2,COc1ccc(N2CCN(C3=NS(=O)(=O)C(c4cccc(Br)c4)=C3C)CC2)cc1,"inconclusive: 39.8 µM [activator, single point]"
3,CNC(=O)COC(=O)/C=C/c1nc2ccccc2s1,"inconclusive: 12.6 µM [inhibitor, partial curve]"
4,CCOC(=O)c1c(C)[nH]c(C(=O)/C(C#N)=C/c2ccc(OCC)cc2)c1C,"inconclusive: 10 µM [inhibitor, partial curve]"
5,CCOC(=O)c1c(N)sc(N)c1C(=O)OCC,active: 14.1 µM
6,COC(=O)c1ccc(/C=C/c2ccc3cccc(OC(C)=O)c3n2)cc1,inactive
7,COc1cc(NC(=O)c2cc([N+](=O)[O-])ccc2Br)ccc1NC(=O)c1ccco1,"inconclusive: 20 µM [inhibitor, single point]"
8,O=C(c1ccccc1Cl)n1nc(-c2cccnc2)nc1NCc1ccc(F)cc1,"inconclusive: 31.6 µM [inhibitor, single point]"
9,CCOC(=O)N1CCN(c2c(NCc3cccs3)c(=O)c2=O)CC1,inactive
10,Cc1cc2nc(-c3ccco3)cc(C(F)(F)F)n2n1,inactive
11,Cc1c(CNC(C)CCc2ccccc2)c(C(=O)O)c(C)n1Cc1ccc(F)cc1Cl (stereo not given),inactive
12,COc1ccccc1OCCCOc1c(C)cc(C)cc1Br,"inconclusive: 14.1 µM [inhibitor, partial curve]"
13,Cc1ccccc1Nc1c(-c2ccc(N3CCOCC3)cc2)nc2ncccn12,"inconclusive: 15.8 µM [inhibitor, partial curve]"
14,COc1ccc(CN2COc3ccc4c(oc(=O)c5ccccc54)c3C2)cc1OC,"inconclusive: 1.41 µM [inhibitor, partial curve]"
15,CCOc1ccc(NC(=S)N(CCc2c(C)[nH]c3ccc(C)cc23)Cc2ccco2)cc1,"inconclusive: 0.891 µM [inhibitor, full curve]"
16,O=C(O)/C=C/C(=O)N1CCN(c2ccc(F)cc2)CC1,inactive
17,O=c1c2ccccc2sn1-c1ccccc1,active: 11.2 µM
18,CC(C)(C)OC(=O)N1CCC(c2c(C(=O)NCCN3CCC(Cc4ccccc4)CC3)cnn2-c2ccccc2)CC1,"inconclusive: 25.1 µM [inhibitor, partial curve]"
19,CNc1ccccc(-c2ccc3cc4c(cc3n2)OCO4)c1=O,active: 5.01 µM
20,CCc1ccc(NC(=O)N2CC(C)Oc3ccc(C)cc32)cc1 (stereo not given),inactive
21,Cc1[nH]nc(Nc2ccc(C(C)C)cc2)c1[N+](=O)[O-],active: 12.6 µM
22,Cc1ccc(C)c(NS(=O)(=O)c2cc3c(cc2Cl)NC(=O)CO3)c1,inactive
23,CCOC(=O)c1cccc(NC(=O)C2CCN(S(=O)(=O)c3cn(C)cn3)CC2)c1,inactive
24,C/C(=N\NC(=O)COc1ccccc1F)c1cc2ccccc2o1,"inconclusive: 5.01 µM [inhibitor, partial curve]"

row,SMILES,Potency
1,COc1ccc(N=C2S/C(=C\c3ccc(N4CCOCC4)o3)C(=O)N2CCc2c[nH]c3ccccc23)cc1,active: 14.1 µM
2,CC(C)c1ccc(NC(=S)NN2CCN(C)CC2)cc1,inactive
3,COc1ccc(NC(=O)c2nc3nc(C)cc(C(F)F)n3n2)c(C)c1,inactive
4,Nc1c(C(=O)NCCN2CCOCC2)c2nc3ccccc3nc2n1CCc1ccccc1,"inconclusive: 7.94 µM [inhibitor, partial curve]"
5,COc1ccc(-n2nc3c(N4CCCC(C(=O)NCCc5ccc(C)cc5)C4)nnc(C)c3c2C)cc1 (stereo not given),"inconclusive: 28.2 µM [inhibitor, single point]"
6,Cc1ccc(C(=O)Nc2ccc3nc(C)sc3c2)s1,inactive
7,O=C(CNCc1ccccc1Cl)Nc1ccccc1N1CCCCC1,"inconclusive: 28.2 µM [inhibitor, single point]"
8,Cc1nn(-c2ccc(N3CCCCC3)nn2)c(C)c1CCC(=O)NCc1ccccc1F,inactive
9,CN(C)CCCOc1ccc2c(c1)Sc1ccccc1CC2=O,inactive
10,NC(=S)NNc1cccc(Cl)c1,"inconclusive: 31.6 µM [inhibitor, partial curve]"
11,COc1ccc(/C=N/OC(=O)Nc2ccccc2OC)cc1,"inconclusive: 15.8 µM [inhibitor, single point]"
12,CCc1ccc(S(=O)(=O)c2nnn3c2nc(N2CCCC2)c2sccc23)cc1,inactive
13,O=C(CCn1[nH]c(=O)c2ccccc2c1=O)OC1CCCCC1,inactive
14,COC(=O)CCCC1=CC2=C(c3ccccc3)C(=O)C(C)(OC(=O)C3CCCC3)C(=O)C2=CN1C1CCCC1 (stereo not given),"inconclusive: 25.1 µM [inhibitor, single point]"
15,Cc1ccc(N2C(=O)C(Cl)=C(NCCO)C2=O)c(C)c1,"inconclusive: 31.6 µM [inhibitor, partial curve]"
16,COC(=O)c1cc(CC(=O)c2ccc(O)cc2O)c(C)o1,inactive
17,COc1ccc(-n2cc(-c3ccccc3)nc2SCC(=O)Nc2ccccc2)cc1Cl,inactive
18,COc1ccc(C(=O)NCCN2C(=O)S/C(=C\c3cccnc3)C2=O)cc1[N+](=O)[O-],"inconclusive: 8.91 µM [inhibitor, partial curve]"
19,CCOC(=O)c1c(-c2ccco2)csc1NC(=O)CSc1nnc(N)s1,"inconclusive: 22.4 µM [inhibitor, partial curve]"
20,CN1CCN(C2=Nc3c(Cl)cc(Cl)c4cccc2c34)CC1,active: 17.8 µM
21,COC(=O)c1ccccc1NC(=O)Cn1c(=O)n(-c2ccc(Cl)cc2)c(=O)c2c(C)c(C)sc21,inactive
22,O=S(=O)([O-])CCC[n+]1c(/C=C\Nc2ccccc2)oc2ccc(-c3ccccc3)cc21,"inconclusive: 3.98 µM [activator, full curve]"
